The values that follow come from PubChem BioAssay (NCI).

In this assay the test system is UO-31 renal. The assay is described as follows: NCI-60 one-dose screen, 48 h (100 = growth as untreated, 0 = no growth, -100 = all killed).

Some structures have more than one record in an assay (separate samples or runs), and their calls can disagree.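 Results are percent growth after 48 hours of single-concentration exposure. 100 means growth as in untreated cells, lower positive values show inhibition; negative values down to -100 show cell death.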 Not every entry of the source has a single result; some have several. The other results are left out here. How the source made its calls: active means growth percent below 10; inactive means the rest. The source may hold further records. This drug was run again and again over the years, at its own concentration, as given; one value stands for one run. Brackets with × say how often a value occurs here.

`COc1cccc2c1C(=O)c1c(O)c3c(c(O)c1C2=O)C[C@@](O)(C(=O)CO)C[C@@H]3OC1CC(N)C(O)C(C)O1` (stereo not given in full): the growth result by setting is: (0.25 µM, runs of 2015) “inactive: 78 (2×), 73.1 (2×), 77.1 (2×), 68.6 (3×), 72.7, 72.2, 79.6, 68.3, 69.4, 75.4, 87.3, 58.7, 77.4 (2×), 79.3, 82.6, 78.8 (3×), 78.3, 76.5, 76.6, 79.8 (2×), 76 (2×), 81.7, 65.8, 73.6, 64.4 (2×), 73.5, 67, 72.5, 74.4 (2×), 67.1, 67.3, 59.7, 75.9 (2×), 68.4, 83.4, 69.6, 67.4, 65.9 (2×), 70, 78.1, 87.7, 74.3, 60, 77.6, 67.9, 72.4, 76.9, 79.1, 80.9, 84.2, 78.5, 82.1, 78.6, 83.2, 83.8, 76.8, 85.2, 80.7, 74.9%”; (0.25 µM, runs of 2016) “inactive: 81.9, 74.8, 67.3, 77.8, 76.3, 61.9 (2×), 65.9 (2×), 73.9, 69.7, 71.8 (2×), 68.3, 72.3, 76.7, 63.1, 73.3, 60.6, 67.4, 69.5 (3×), 72.2 (2×), 63.3, 67.9 (3×), 78.6, 69.6, 80.1, 70.3, 79.3, 61.2, 61.5, 68.2, 65.1, 59.9, 68.8 (2×), 61.4, 68.1, 57.8, 64.6, 64.3, 74.2, 75.9, 65.3, 76.5, 77.5, 67.1, 74.9, 72.1 (2×), 76.4, 76.9, 73.8 (2×), 69.4, 73.5, 76.1, 74.5, 66.1, 71.9, 68, 73.6, 70.8, 74.7, 76, 71.1, 65.8, 57.9, 62.5, 60, 60.2, 64.2%”; (0.25 µM, runs of 2017) “inactive: 64.1, 64.7, 70.3 (2×), 72.9, 68.4, 73.7, 68, 69.6 (3×), 67.9, 72.3 (2×), 70.2 (4×), 74.5, 73.6, 70.6, 71.8 (2×), 76, 76.6 (2×), 69.3, 71.9 (2×), 74.1, 76.7, 71.2, 65 (2×), 67 (4×), 75.3, 67.7, 63.9, 66.4, 69.7, 76.8, 77.2, 73.8, 75.8, 74.4, 73.2, 62.4, 65.3, 69 (2×), 66.6, 78.2, 70.9, 62.6, 72, 74.8, 64.5, 65.7, 64.8%”; (0.25 µM, runs of 2018) “inactive: 67.1, 69.6, 64.5, 66.8, 65.9, 64.1, 52.1, 58.8, 65.4 (2×), 64.8, 62.4, 69, 72.9, 75.3, 71.9, 73.8, 72.6, 60.8, 67.6, 56.5, 58.4, 69.7, 68.1, 72.7, 72.5 (2×), 70.6 (2×), 72.3, 73.9 (2×), 71.6, 74.2, 76.3, 75.7, 74.1, 75.1, 75.8, 77.8, 73, 71.8, 68.2 (2×), 68.7, 72.4, 73.3, 76.1, 64.7% (2×)”; (0.25 µM, runs of 2019) “inactive: 62.1, 65.9, 74.5, 67.6 (4×), 70, 65.1, 71.1, 73.3, 73.5, 61.2, 62.5 (2×), 60.8 (3×), 57.8, 61.8, 63.7, 68.2, 73.2, 71.8, 68, 67.1 (2×), 61.4, 61, 58.1, 62.9, 61.7, 64, 68.6, 63, 64.6, 65, 69, 77.6, 68.8, 66.7, 70.8, 68.1%”; (0.25 µM, runs of 2020) “inactive: 68.2, 69.4, 71 (2×), 70.8, 70.9, 67.5, 59.7, 63.9, 64.6, 67, 61.8, 64.9, 64.5, 75.1, 65.8, 66.6, 76.4, 76.3, 69.6, 72%”. The growth entry (0.25 µM, runs of 2021) is “inactive: 73.5, 79.3, 71.2, 63.7, 64.4 (2×), 62.2, 62.9, 62.4, 64.2, 67, 67.1 (3×), 72.4 (2×), 67.4, 67.5, 66.7, 65.1, 64.6 (2×), 65.8, 66.4, 68.8, 69.5, 76.3, 61.1 (2×), 60.5, 70.6, 71, 66, 65, 69, 68.2, 69.4, 68.3, 71.6, 60, 67.3, 68.4, 68.7, 74.1, 63.4, 72.3%”; the growth entry (0.25 µM, runs of 2022) was “inactive: 44.8, 47.7, 56.8, 67.8, 36.7, 64.8, 53.8, 65.6, 61.7, 69, 59.1, 63.8, 70.2, 62, 67.6, 69.6, 80.4, 81.9, 74.5, 82.6, 73.9, 86.4, 63.3, 65.4%”; the growth entry (25 µM, runs of 1991) was “active: -37, -56.1, -64.8 (2×), -67.8, -59, -52.5, -65.5, -43.9, -66.1, -54.1, -44.2, -62.6, -68.6, -59.6, -53.3, -44, -64.7, -53.6%”; the growth entry (25 µM, runs of 1992) is “active: -67.4, -61.1, -40.9, -32.7, -66.4, -66.9, -66.8, -55.5, -50.1, -32, -32.5, -57.1, -44.7, -11.9, -54.8, -64.1, -45.3, -14.9, -29.7, -51.4, -53.9, -60.3 (2×), -48.6, -47.2, -57, -56.8, -12.3, -38.1, -37.8, -10.8, -12.8, -47.5, -37.5, -62.4 (2×), -68.6, -68.7, -64.3, -46.7, -55.9, -18.9, -58.8, -70.3, -20, -56.4, -39.1, -10, -58.6, -61 (2×), -71.6, -67.3, -95.6, -65.3 (2×), -70.2, -72.9, -43.6, -37.1, -43.4, -65.5 (2×), -66.7, -69.9, -75.3, -86.7, -86.2, -95, -68.8, -60, -71.5, -49.7, -1.17, -31.9 (2×), -24.1, -59.7, -55.1, -13.9, -52.9, -45.2, -81, -72.3, -67.8, -61.6, -77, -54.7, -41, -44.9, -61.4, -60.8, -48.7, -75.9, -68.3, -56.9, -62.6, -48.9, -62, -73.1, -65.8, -79.8, -42, -88.6, -53.1, -27.3, -69.7, -65.4, -40.3, -48.1, -26.7, -25.3, -53.6, 2.12, -57.5, -49.8, -5.98, -51.9% and inactive: 19.7%”; the growth result (25 µM, runs of 1993) was “active: -39.1, -37.9 (2×), -47.4 (2×), -39.5, -41.2, -61.9, -56.2, -64.5, -53.8, -28.1, -63.4, -48.3, -48.4, -6.22, -18.3, -44.6, -57.1, -29.2, -40.9, -69.2, -59.2, -36.6, -34.1, -61.4, -49.2, -15.7, -50.9, -29.6, -52.2, -25.7, -45.7, -47.1, -67.5, -36.8, -62.5, -53.1, -58.2, -41.4, -34.4, 3.89, -50.1, -21.6, -57.5, -31.9, -37.8, -59%”; the growth result (25 µM, runs of 1994) is “active: -27.8, -5.05, -34.6, -52, -31.3, -46.1, -24.9, -32.6, -26.2, -27.7, -4.61, -16, -24.6, -42.8, -2.14, -24.2, -42.3, -34.1, -60.8, 5.79, -31, -20.7, -60.3, -35.1, -50.9, -57.2, -31.1, -49.2, -34.4, -31.8, -47.4, -48.4, -6.41% and inactive: 72.1%”. Further, the growth entry was “active: -43.7, -21, -2.82, -12.2, -37.1, -56.6 (2×), -33.9, -35.1, -36.5, -56.7, -37.3, -38.1, -31.2, -46.7, -59.4, -60, -57.5, -59.8, -56.1, -26.3, -52.2, -45.1, -60.5, -42, -15.8, -32.5, -13.6, -31.4, -38.6, -40.2, -29.8, -62, -61.6, -69.3, -53.9, -55.3, -58.7, -39.3, -55.2, -56.2%” (25 µM, runs of 1995); “active: -32.9, -54.5, -54.6, -53.3, -53, -58.5, -47.8, -48.2, -75.7, -34.6, -49.1, -33, -66.5, -25.8, -26.3, -32.1, -48.7, -22.6, -40.4, -40.9, -53.9, -54.7, -23.4, -37.5, -27.6, -8.75, -36.6, -49.2, -37.2, -64.1, -59, -39.8, -20.4, -20.5, -38.1, -29.1, -59.6, -39.6, -43.4 (2×), -16.7, -28.7, -86.8, -47.7, -30.4, -42.6, -50.2, -57.2, -53.4, -52.2, -63.1, -44.5, -37.9, -63.6, -40.7% and inactive: 117%, 12.2%” (25 µM, runs of 1996); “active: -30.9, -55.9, -34.1, -34.5, -39.9, -53.9, -42.7, -24, -40.7, -42.1, -34.7, -18.7, -37.8, -43.9, -32, -41.9, -48.4, -40.9, -33.3, -57.4, -56.9, -27.8, -48, -9.28, 1.85, 0.787, 2.59, -31.1, -0.162, 3.11, -6.85, -9.33, -11.2, -5.84, -22.9, -4.46, -5.18, -12.5, -12.8, 0.165, -14.5, -13.1, 9.14, -52% and inactive: 10.4%, 10.2%, 13.6%” (25 µM, runs of 1997).
